Experimental data: paper PMC11968563, “Characterization of the E26H Mutant Schistosoma japonicum Glutathione S‐Transferase” (Proteins, 2025)

Molecular target: the molecule itself
Assay: native gel or EMSA; non-denaturing sample preparation and electrophoresis; precast native gel 4%-15%, Tris/glycine running buffer, Coomassie-stained; monomer and dimer bands separated

B1: E26H mutant Schistosoma japonicum glutathione S-transferase, sjGST(E26H) (enzyme)
chain: not shown
notes: glutathione S-transferase of Schistosoma japonicum (sjGST), […], with E26H, as expressed from the pGEX-4T-3 plasmid without insert; Standalone GST mutant, no fusion partner; Surmise: the pGEX-4T-3 vector adds a few C-terminal residues (thrombin site and multiple cloning site); also called E26H mutant sjGST; the mutant
For B1, the “stoichiometry N” value was 2.
